Results as given in PubChem BioAssay AID2675 (National Center for Advancing Translational Sciences (NCATS), 2010).
About 100 (0.036%) of roughly 280,000 compounds were called active. The shares of active, inactive and inconclusive entries below differ from those in the screen. Calls come from the whole dose curve; as a rule, active = well fitted inhibition curve with a large enough effect in the signal ratio, with a control signal flat (not every such curve was filed as active); inconclusive = small, poorly fitted or top-dose-only effect, or effect the other way, or a change in a side signal; inactive = no such curve, though single readings can be large or run the other way; the % refers to the signal ratio. Where the call is inconclusive, the potency comes from a doubtful curve fit. A note “side channel” means that the fit belongs to a control or component signal, not to the main read-out.

Target: Muscleblind-like protein 1 (Homo sapiens) (UniProt Q9NR56)
Assay: qHTS Assay for Inhibitors of MBNL1-poly(CUG) RNA binding
Conditions: TR-FRET MBNL1-His/biotin-(CUG)12 binding, 665/545 ratio; activity change, negative = inhibition: at 57.5 µM (top of the series)
Summary of the method: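 TR-FRET readout: Ex 340 nm, 665/545 nm emission ratio, normalized to buffer-only (basal) and MBNL1-(CUG)12 controls. Complex of MBNL1-His with Biotin-(CUG)12, compounds 92 nM–58 uM, incubated 60 min at room temperature.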
% is set by controls: 0 for no effect and ±100 for the full control effect; potency is the fitted concentration of half-maximal effect; tags give direction and shape of the fitted curve or compound fluorescence and quenching.

UniProt Q9NR56, sequence (Q9NR56 whole entry, looked up): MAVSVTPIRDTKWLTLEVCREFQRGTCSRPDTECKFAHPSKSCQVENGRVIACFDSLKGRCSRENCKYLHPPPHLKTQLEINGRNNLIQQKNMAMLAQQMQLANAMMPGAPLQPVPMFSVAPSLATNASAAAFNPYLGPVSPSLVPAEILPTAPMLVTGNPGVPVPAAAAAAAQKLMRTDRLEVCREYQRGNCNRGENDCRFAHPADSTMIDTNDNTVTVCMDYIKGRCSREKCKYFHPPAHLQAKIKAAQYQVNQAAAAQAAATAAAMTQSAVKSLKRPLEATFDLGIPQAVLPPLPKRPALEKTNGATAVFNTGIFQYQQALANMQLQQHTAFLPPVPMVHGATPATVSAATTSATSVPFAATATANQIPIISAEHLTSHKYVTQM

| SMILES | activity change, negative = inhibition | Potency |
| --- | --- | --- |
| COc1ccc(NC(=O)C2CCCN(CCCc3ccccc3)C2)cc1OCC(C)C (stereo unspecified) | inactive: 3.37% |  |
| Cc1ccc2oc(-c3ccco3)nc2c1 | inactive: 5.04% |  |
| COc1ccc(/C=C2\Sc3ccc(C(=O)N4CCCC4)cc3N(C)C2=O)cc1OC |  | inconclusive: 25.1 µM [quencher, side channel, partial curve] |
| Cc1cc(C(=O)N/N=C/c2ccc([N+](=O)[O-])cc2)c(C)o1 |  | inconclusive: 7.08 µM [quencher, side channel, full curve] |
| C/C(=N/NC(=O)c1ccc(Br)o1)c1ccncc1 |  | inconclusive: 39.8 µM [quencher, side channel, single point] |
| O=C(NC1CC1)c1nc(Cn2cc([N+](=O)[O-])cn2)no1 | inactive: 4.29% |  |
| Cc1nc(N)c(C#N)c(-c2ccc3c(c2)OCO3)c1C | inactive: 19.3% |  |
| C=CCn1c(SCC(=O)NC(=O)c2cccc([N+](=O)[O-])c2)nnc1-c1ccccc1 |  | inconclusive: 14.1 µM [quencher, side channel, partial curve] |
| O=C(Nc1ccccc1)N1CCc2ccccc2C1 |  | inconclusive: 79.4 µM [inhibitor, single point] |
| COc1ccc(/C=N/NC(=O)c2ccccc2OC)cc1COc1ccccc1[N+](=O)[O-] |  | inconclusive: 14.1 µM [quencher, side channel, partial curve] |
| Cc1cc(/C=N/Nc2nc(N)ncc2[N+](=O)[O-])c(C)n1-c1ccccc1F |  | inconclusive: 14.1 µM [quencher, side channel, partial curve] |
| O=C(Nc1cccnc1)c1cc([N+](=O)[O-])ccc1Cl |  | inconclusive: 22.4 µM [quencher, side channel, partial curve] |
| Cc1cc(OCC(=O)N(C)C)c2c(-c3ccccc3)cc(=O)oc2c1 |  | inconclusive: 25.1 µM [quencher, side channel, partial curve] |
| O=[N+]([O-])c1ccc(-n2nncc2-c2ccccc2)cc1 |  | inconclusive: 2.51 µM [quencher, side channel, full curve] |
| Cc1ccc(Nc2c(-c3ccc(C)o3)nc3ncccn23)cc1 |  | inconclusive: 31.6 µM [quencher, side channel, single point] |
| O=C(NCCCN1CCOCC1)c1cc2nc(-c3ccco3)cc(C(F)(F)F)n2n1 |  | inconclusive: 28.2 µM [quencher, side channel, partial curve] |
| CC(=O)N(CC1CCCO1)c1nnc(-c2cnccn2)s1 (stereo unspecified) |  | inconclusive: 28.2 µM [quencher, side channel, partial curve] |
| Cc1ccc(C(=O)OC/C(O)=C(\C#N)c2nc3ccccc3[nH]2)cc1S(=O)(=O)N1CCOCC1 | inactive: 10.8% |  |
| COc1cc(/C=C2\SC(=O)N(CC(=O)Nc3ccccc3F)C2=O)cc(Cl)c1O | inactive: 2.95% |  |
| Cn1cc(/C=N/NC(N)=S)c2ccccc21 |  | inconclusive: 31.6 µM [quencher, side channel, partial curve] |
| O=[N+]([O-])c1cccc(NC(=S)N2CCc3ccccc3C2)c1 |  | inconclusive: 22.4 µM [quencher, side channel, partial curve] |

| SMILES | activity change, negative = inhibition | Potency |
| --- | --- | --- |
| O=C(Nc1c(Cl)ccc2nsnc12)c1cccnc1 |  | inconclusive: 14.1 µM [quencher, side channel, partial curve] |
| CC(=O)c1nnn(-c2ccc([N+](=O)[O-])cc2)c1C |  | inconclusive: 11.2 µM [quencher, side channel, partial curve] |
| O=C(CSc1nnnn1-c1ccc(Cl)cc1)NNC(=O)c1ccc([N+](=O)[O-])cc1 |  | inconclusive: 3.55 µM [quencher, side channel, full curve] |
| CCN1CCc2nc3sc(C(=O)Nc4cccnc4Cl)c(N)c3cc2C1 |  | inconclusive: 14.1 µM [quencher, side channel, partial curve] |
| O=C(N/N=C/C=C/c1ccccc1)c1ccccn1 |  | inconclusive: 20 µM [quencher, side channel, partial curve] |
| O=C1c2ccccc2S(=O)(=O)c2cc(C(=O)N(c3ccccn3)c3ccccn3)ccc21 |  | inconclusive: 12.6 µM [quencher, side channel, partial curve] |
| CCOC(=O)C1CCN(C(=O)Nc2ccc3nc(-c4ccco4)c(-c4ccco4)nc3c2)CC1 |  | inconclusive: 10 µM [quencher, side channel, partial curve, poor fit] |
| O=C(/C=N/NC(=O)c1ccccc1Br)c1ccccc1 |  | inconclusive: 3.55 µM [quencher, side channel, partial curve] |
| CCN1CCc2nc3ccccc3c(C(=O)Nc3ccc(F)cc3)c2C1 | inactive: -2.69% |  |
| Cn1c(=O)c2c(nc(-n3ccnc3)n2Cc2ccc(Cl)cc2Cl)n(C)c1=O |  | inconclusive: 79.4 µM [inhibitor, partial curve] |
| CCCCOC(=O)Nc1nnc(SCCOc2ccc(C)cc2)s1 |  | inconclusive: 39.8 µM [fluorescent, side channel, partial curve] |
| CCOC(=O)c1[nH]c(C)c(C(=O)OCC)c1C | inactive: -9.72% |  |
| CC(C)CNC(=O)COC(=O)c1ccc([N+](=O)[O-])cc1Cl |  | inconclusive: 22.4 µM [quencher, side channel, partial curve] |
| CCCC(=O)Nc1nn(C)c2nc3ccc(C)cc3cc12 |  | inconclusive: 8.91 µM [quencher, side channel, partial curve] |
| O=[N+]([O-])c1ccc(O)c(/C=N/n2cnnc2)c1 |  | inconclusive: 3.16 µM [activator, partial curve] |
| COc1cc(/C=N/N2C(=O)CSC2=S)ccc1O |  | inconclusive: 25.1 µM [quencher, side channel, partial curve] |
| Cn1c(SCCOc2ccccc2Cl)nnc1-c1cccs1 |  | inconclusive: 39.8 µM [inhibitor, single point] |
| CCOc1cccc(/C(O)=C2/C(=O)C(=O)N(Cc3cccnc3)C2c2ccco2)c1 (stereo unspecified) | inactive: 7.49% |  |
| Cc1ccc(N=Cc2cccc(O)c2O)c(C)c1 |  | inconclusive: 31.6 µM [quencher, side channel, single point] |
| Cc1ccc(C(=O)ONc2ccc(N=O)cc2)cc1 |  | inconclusive: 2.51 µM [quencher, side channel, full curve, poor fit] |
| CCN1CCN(C(=O)c2ccc3nc(-c4ccccc4)c(-c4ccccc4)nc3c2)CC1 | inactive: 11.4% |  |

| SMILES | activity change, negative = inhibition | Potency |
| --- | --- | --- |
| CCn1c(COc2ccccc2)nnc1SCC(=O)c1cccc([N+](=O)[O-])c1 |  | inconclusive: 10 µM [quencher, side channel, partial curve] |
| CN(C)S(=O)(=O)n1cc(/C=C(\NC(=O)c2ccccc2F)C(=O)NCCCn2ccnc2)c2ccccc21 |  | inconclusive: 22.4 µM [quencher, side channel, partial curve] |
| Cc1ccc2c(C)nc(N/C(N)=N/S(=O)(=O)c3ccc([N+](=O)[O-])cc3)nc2c1 |  | inconclusive: 1 µM [quencher, side channel, single point] |
| COc1cccc(N=Nc2c(N)[nH][nH]c2=O)c1 |  | inconclusive: 12.6 µM [quencher, side channel, partial curve] |
| C/C(=N\NC(=O)c1c([N+](=O)[O-])c(C)nn1C)c1ccc(NC(=O)c2ccc(C)o2)cc1 |  | inconclusive: 20 µM [quencher, side channel, partial curve] |
| O=C(NCc1ccc(Cl)c(Cl)c1)c1cccnc1 |  | inconclusive: 6.31 µM [quencher, side channel, single point] |
| CC1CCCC(NS(=O)(=O)c2cccc3nsnc23)C1C (stereo unspecified) |  | inconclusive: 28.2 µM [quencher, single point] |
| N#CC(C(=O)NC1CC1)c1nc2ccccc2nc1N1CCCC1 (stereo unspecified) | inactive: 4.01% |  |
| Cc1cc2ccccn2c1C(=O)c1cccc(S(=O)(=O)N2CCOCC2)c1 |  | inconclusive: 28.2 µM [quencher, side channel, partial curve] |
| O=C(CCC(=O)OCc1cccc([N+](=O)[O-])c1)Nc1ccccc1Cl |  | inconclusive: 20 µM [quencher, side channel, single point] |
| O=C(Nc1cccc([N+](=O)[O-])c1)C(=O)N1CCCCC1 |  | inconclusive: 31.6 µM [quencher, side channel, partial curve] |
| c1ccc(C[n+]2cccc3c4ccccc4ccc32)cc1 |  | inconclusive: 15.8 µM [quencher, side channel, partial curve] |
| COCCNC(=O)c1ccc2c3n(nc2c1)-c1ccc(C)cc1CO3 |  | inconclusive: 5.01 µM [quencher, side channel, full curve] |
| CCOc1ccc(OCC(=O)N2CCOCC2)cc1 | inactive: -8.93% |  |
| Cc1nc2ccc(C(=O)OCc3nnc(-c4ccccc4)o3)cc2nc1C |  | inconclusive: 14.1 µM [quencher, side channel, partial curve] |
| Oc1ccc(-c2csc(-c3cccnc3)n2)c(O)c1 |  | inconclusive: 7.08 µM [quencher, partial curve] |
| CC(NC(=O)C1(c2cccs2)CCOCC1)c1ccccc1 (stereo unspecified) |  | inconclusive: 7.08 µM [quencher, side channel, single point] |
| CC1CCN(C(=O)Nc2ccc3nsnc3c2)CC1 |  | inconclusive: 25.1 µM [quencher, side channel, partial curve] |
| COc1ccc([C@H]2[C@H](C(=O)C(C)(C)C)N3N=Cc4ccccc4C3C23C(=O)OC(C)(C)OC3=O)cc1 (stereo partly specified) |  | inconclusive: 39.8 µM [quencher, side channel, partial curve] |
